Data from PubChem BioAssay (Tox21).
“And” between values parts separate entries of the source, which are not always exact repeats. Equal entries are not always repeated. Inconclusive results, whose numbers are uncertain, are shown with a selection of clear calls. Potencies of inconclusive entries are doubtful fits and often do not repeat. Where a structure was tested more than once in an assay, its records may differ in their call. The source made the active and inactive calls. Unless noted, calls come from the whole dose curve; as a rule, active = well fitted curve in the direction sought with a large enough effect in the repeat runs; inconclusive = weak or mixed curves; inactive = no such curve, though single readings can be large; an effect the other way counts as inactive or inconclusive.

test system: not listed separately; assay: qHTS assay to identify small molecule antagonists of the estrogen receptor alpha (ER-alpha) signaling pathway using the BG1 cell line (AID 743080; calls by dose curve;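 note: BG1 cells stimulated with 17beta-estradiol alongside compound; nearly all actives have a fitted effect of over 25% in size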); settings: BG1Luc4E2 ERE-luciferase antagonist mode, luminescence; activity change, negative = inhibition: at 70.3 µM (top of the series) unless noted
Procedure, shortened: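 Luciferase inhibition measured with ONE-Glo after 30 min at RT in BG1Luc4E2 cells given test compounds and 17beta-estradiol for 21.5 h at 37 C; CellTiter-Fluor viability read in the same wells beforehand.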
% is set by controls: 0 for no effect and ±100 for the full control effect; potency is the fitted concentration of half-maximal effect; tags give direction and shape of the fitted curve.

| SMILES | activity change, negative = inhibition | Potency |
| --- | --- | --- |
| Nc1ccc(Oc2ccc(Cl)cc2)cc1 | inconclusive: -28.6% |  |
| CCCCCCCCS(=O)C(C)Cc1ccc2c(c1)OCO2 (stereo not given) |  | inconclusive: 78.4 µM [falling, single point] |
| CCC(N)(CO)CO | inactive: -1.88% [at 95 µM] |  |
| N=C1N=C(N)c2ccccc21 | inconclusive: 1.41% |  |
| Cc1cc(C2(c3cc(C)c(O)cc3C)OS(=O)(=O)c3ccccc32)c(C)cc1O | inconclusive: -8.63% |  |
| CC(C)(C)c1ccc(CCC=O)cc1 | inconclusive: -6.65% |  |
| Cc1cccc(N(C)C(=S)Oc2ccc3c(c2)CCC3)c1 | inconclusive: -14% |  |
| O=c1c(O)c(-c2ccc(O)cc2O)oc2cc(O)cc(O)c12 | inactive: 3.91% |  |
| Cc1cc(N)n(-c2ccccc2)n1 |  | inconclusive: 30.6 µM [rising, partial curve, poor fit] |
| Clc1sc(Cl)c(Cl)c1Cl | inactive: 5.83% |  |
| O=C(/C=C/c1ccccc1)OCCc1ccccc1 |  | inconclusive: 4.86 µM [rising, partial curve] |
| OC1CCCC1 | inconclusive: 2.47% |  |
| Oc1ccc2c(c1)Cc1ccccc1-2 |  | inconclusive: 15.4 µM [rising, full curve] |
| Nc1ccc(N=Nc2ccccc2)c(N)c1 |  | inconclusive: 0.267 µM [rising, full curve] |
| C=Cc1ccc(S(=O)(=O)O)cc1 |  | inactive |
| C[C@@H]1C[C@H]2[C@@H]3C[C@H](F)C4=CC(=O)C(Cl)=C[C@]4(C)[C@@]3(F)[C@@H](O)C[C@]2(C)[C@@]1(O)C(=O)CO |  | inconclusive: 0.0053 µM [rising, full curve] |
| C#C[C@]1(O)CC[C@H]2[C@@H]3CCC4=Cc5oncc5C[C@]4(C)[C@H]3CC[C@@]21C |  | active: 61.1 µM |
| CNC(=S)NN |  | inconclusive: 77 µM [rising, single point] |
| Oc1ccc2ccccc2c1N=Nc1ccccc1 | inconclusive: -2.77% | inconclusive: 68.6 µM [rising, single point] |
| CC(C)=CCC1C(=O)N(c2ccccc2)N(c2ccccc2)C1=O |  | inconclusive: 13.3 µM [rising, full curve] |
| C=CC(=O)NC(C)(C)CS(=O)(=O)O |  | inactive |
| O=C(NS(=O)(=O)/C=C/c1ccccc1)c1ccc(F)cc1Cl |  | inconclusive: 7.7 µM [rising, full curve] |
| Nc1ncnc2nc[nH]c12 |  | inconclusive: 29.8 µM [rising, partial curve, poor fit] |
| CCC(C)(C)C(=O)O[C@H]1C[C@@H](C)C=C2C=C[C@H](C)[C@H](CC[C@@H]3C[C@@H](O)CC(=O)O3)[C@H]21 |  | inconclusive: 10.1 µM [rising, partial curve] and inconclusive: 54.5 µM [rising, partial curve] |

test system: not listed separately; assay: qHTS assay to identify small molecule antagonists of the estrogen receptor alpha (ER-alpha) signaling pathway using the BG1 cell line - cell viability counter screen (AID 743081); settings: BG1Luc4E2 viability, CellTiter-Fluor, 22 h; activity change, negative = cytotoxicity: at 70.3 µM (top of the series);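 note: compound given together with 17beta-estradiol as the ER stimulus; nearly all actives have a fitted effect of over 45% in size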

| SMILES | activity change, negative = cytotoxicity | Potency |
| --- | --- | --- |
| CCCCCCCCS(=O)C(C)Cc1ccc2c(c1)OCO2 (stereo not given) | inactive: -4.82% [at 95 µM] |  |
| CC(=O)CCC(C)C |  | inconclusive: 0.217 µM [rising, full curve, poor fit] |
| Cc1cc(C2(c3cc(C)c(O)cc3C)OS(=O)(=O)c3ccccc32)c(C)cc1O |  | active: 27.3 µM and active: 24.3 µM |
| Cc1cccc(N(C)C(=S)Oc2ccc3c(c2)CCC3)c1 |  | inconclusive: 13.3 µM [cytotoxic, single point] |
| CC(C)(C)c1cc(Cc2cc(C(C)(C)C)c(O)c(C(C)(C)C)c2)cc(C(C)(C)C)c1O |  | inactive |
| Nc1ccc(N=Nc2ccccc2)c(N)c1 |  | active: 26.7 µM |
| Oc1ccc2ccccc2c1N=Nc1ccccc1 |  | active: 34.4 µM |

molecular target: Aromatase (Homo sapiens) (UniProt P11511); assay: qHTS assay to identify aromatase inhibitors (AID 743083); settings: MCF-7 aro ERE, testosterone-driven ERE luciferase, 24 h; series mostly up to 70.3 µM; activity, negative = inhibition: at the top concentration; note: nearly all actives have a fitted effect of over 55% in size
Sequence of UniProt P11511 (P11511 whole entry, looked up): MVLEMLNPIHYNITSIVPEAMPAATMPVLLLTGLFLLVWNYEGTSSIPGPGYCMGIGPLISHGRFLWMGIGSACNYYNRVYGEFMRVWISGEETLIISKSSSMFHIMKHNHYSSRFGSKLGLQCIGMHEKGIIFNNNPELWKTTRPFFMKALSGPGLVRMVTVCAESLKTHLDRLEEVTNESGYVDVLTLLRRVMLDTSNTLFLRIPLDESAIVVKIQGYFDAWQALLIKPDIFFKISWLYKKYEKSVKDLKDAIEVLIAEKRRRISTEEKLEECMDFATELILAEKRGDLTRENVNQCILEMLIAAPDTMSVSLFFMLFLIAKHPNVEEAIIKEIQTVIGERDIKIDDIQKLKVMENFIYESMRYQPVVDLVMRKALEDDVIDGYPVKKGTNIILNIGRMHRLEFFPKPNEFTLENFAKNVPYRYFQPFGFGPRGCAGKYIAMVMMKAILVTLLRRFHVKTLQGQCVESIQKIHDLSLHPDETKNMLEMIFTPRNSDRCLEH

| SMILES | Potency | activity, negative = inhibition |
| --- | --- | --- |
| O=C=Nc1cccc(C(F)(F)F)c1 | inconclusive: 68.1 µM [inhibitor] |  |
| CCCCCCCCS(=O)C(C)Cc1ccc2c(c1)OCO2 (stereo not given) | inconclusive: 69.9 µM [inhibitor] |  |
| Cc1cc(C2(c3cc(C)c(O)cc3C)OS(=O)(=O)c3ccccc32)c(C)cc1O | inconclusive: 21.7 µM [inhibitor, partial curve] and inconclusive: 21.7 µM [inhibitor, partial curve, poor fit] |  |
| CC(C)(C)c1ccc(CCC=O)cc1 | inconclusive: 68.6 µM [inhibitor, single point] |  |
| C#C[C@]1(O)CC[C@H]2[C@@H]3CCC4=Cc5oncc5C[C@]4(C)[C@H]3CC[C@@]21C | inconclusive: 48.6 µM [inhibitor, partial curve] |  |
| CSC(=O)c1cccc2nnsc12 |  | inactive: -11.6% |
| O=C(NS(=O)(=O)/C=C/c1ccccc1)c1ccc(F)cc1Cl |  | inactive: -2.92% |

test system: not listed separately; assay: qHTS assay to identify aromatase inhibitors - cell viability counter screen (AID 743084); settings: MCF-7 aro ERE viability, CellTiter-Fluor, 24 h; activity change, negative = cytotoxicity: at 70.3 µM (top of the series);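 note: cells stimulated with testosterone during compound exposure; nearly all actives have a fitted effect of over 55% in size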

| SMILES | Potency | activity change, negative = cytotoxicity |
| --- | --- | --- |
| CCCCCCCCS(=O)C(C)Cc1ccc2c(c1)OCO2 (stereo not given) | inconclusive: 78.4 µM [cytotoxic, single point] |  |
| Cc1cc(=O)oc2cc(O)ccc12 | inconclusive: 54.5 µM [rising, single point] and inconclusive: 68.6 µM [rising, single point] |  |
| N=C1N=C(N)c2ccccc21 | active: 61.1 µM |  |
| CN(CCOc1ccc(NS(C)(=O)=O)cc1)CCc1ccc(NS(C)(=O)=O)cc1 | inconclusive: 2.98 µM [cytotoxic, full curve, poor fit] |  |
| O=c1c(O)c(-c2ccc(O)cc2O)oc2cc(O)cc(O)c12 | inconclusive: 57.5 µM [cytotoxic, partial curve, poor fit] |  |
| CCSCC |  | inactive: -14.4% [at 95 µM] |
| CNC(=S)NN | inconclusive: 54.5 µM [cytotoxic, partial curve] |  |
| Oc1ccc2ccccc2c1N=Nc1ccccc1 | active: 30.6 µM and active: 24.3 µM |  |
| N#[N+]c1ccc2c(S(=O)(=O)[O-])cccc2c1O | inconclusive: 19.3 µM [cytotoxic, partial curve] |  |
| C=CC(=O)NC(C)(C)CS(=O)(=O)O | inconclusive: 37.7 µM [rising, partial curve, poor fit] |  |
| Nc1ncnc2nc[nH]c12 |  | inconclusive: 30.9% |
